The supplement of paper PMC4723716
± gives the uncertainty stated by the source. The full ranking holds about 9,900 compounds; the median of “viability index relative to DMSO control” is about 1, and the lowest 2% start at about 0.85. The list shows a part of the results.

System: Plasmodium falciparum NF54 stage V gametocytes
Assay: viability index relative to DMSO control (fraction); higher = less gametocyte killing
Details: 2.5 µM, incubation time: 72 h
In short: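 Gametocytes (P. falciparum NF54, stage V) were treated with compound at 2.5 µM for 72 hr at 37°C in low oxygen, in serum-free medium at 0.75% gametocytemia and 1.25% hematocrit. Counts of 20–70 µm2 red particles, taken from one field per well after MitoTracker Red CMXRos with saponin, were divided by the plate mean of solvent-only wells. This ratio is the viability index.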

[1] = library set: Broad Institute DOS
[2] = library set: Broad Institute Blood Stage

SMILES: C[C@@H]1CN([C@H](C)CO)C(=O)CCCn2nncc2CO[C@H]1CN(C)Cc1ccc(C(=O)Nc2ccccc2N)cc1
- viability index [1]: 1.02 ± 0.13

SMILES: N#C[C@@H]1[C@H](c2ccccc2)[C@H](CO)N1S(=O)(=O)c1cccc(F)c1
- viability index [1]: 1.09 ± 0.13

SMILES: COc1ccc2c3c([nH]c2c1)[C@H](CO)N(C[C@]31CCN(Cc2ccccc2Cl)CC1)S(=O)(=O)c1cn(C)cn1
- viability index [1]: 0.982 ± 0.048

SMILES: O=C1N[C@H](Cc2ccccc2)COCc2cn(nn2)CC[C@H]1Cc1cccc(F)c1
- viability index [1]: 1.04 ± 0.05

SMILES: C[C@@H]1CN([C@H](C)CO)C(=O)c2cc(NS(=O)(=O)c3ccccc3)ccc2O[C@@H](C)CCCCO[C@H]1CN(C)C(=O)C1CCCCC1
- viability index [1]: 1.19 ± 0.027

SMILES: O=C(C1CCOCC1)N1C[C@H]2[C@@H](c3ccccc31)[C@H](CO)N2C(=O)Cc1ccccn1
- viability index [1]: 0.989 ± 0.091

SMILES: CC(C)[C@H]1COCc2cn(nn2)CCCCC(=O)N1
- viability index [1]: 1.04 ± 0.097

SMILES: C/C=C/c1ccc([C@H]2[C@@H](CO)N(C(C)=O)[C@H]2CNC(=O)c2ccccc2)cc1
- viability index [1]: 1.026 ± 0.0011

SMILES: COc1ccc(-c2ccc3c(c2)[C@@H]2[C@@H](CCN2C(=O)c2ccncc2)[C@@H](CO)N3C)cc1
- viability index [1]: 1.09 ± 0.042

SMILES: O=C(C[C@H]1C[C@@H]2c3cc(NS(=O)(=O)c4ccccc4)ccc3O[C@@H]2[C@@H](CO)O1)N1CCOCC1
- viability index [1]: 1.09 ± 0.017

SMILES: COc1cccc(NC(=O)C[C@H]2CC[C@H]3[C@@H](COc4ccc(NC(=O)C5CC5)cc4C(=O)N3C)O2)c1
- viability index [1]: 1.13 ± 0.018

SMILES: CS(=O)(=O)Nc1ccc2c(c1)[C@H]1C[C@@H](CC(=O)NCc3cc(F)ccc3F)O[C@@H](CO)[C@H]1O2
- viability index [1]: 1.07 ± 0.057

SMILES: O=C(CC(F)(F)F)N1C[C@H]2[C@@H](c3ccccc31)[C@@H](CO)N2Cc1cccnc1
- viability index [1]: 1.04 ± 0.028

SMILES: COc1ccccc1CN1CC[C@@H]2[C@H](CO)Nc3ccc(-c4cccc(C(=O)N(C)C)c4)cc3[C@@H]21
- viability index [1]: 0.841 ± 0.072

SMILES: CNC[C@H]1Oc2ccc(N)cc2CC(=O)N([C@H](C)CO)C[C@H]1C
- viability index [1]: 1.01 ± 0.13

SMILES: O=C(C[C@H]1CC[C@H](NS(=O)(=O)c2ccc(F)cc2)[C@@H](CO)O1)N1CCN(c2ccccc2)CC1
- viability index [1]: 1.09 ± 0.13

SMILES: Cc1noc(C)c1S(=O)(=O)N(C)C[C@@H]1Oc2c(NS(=O)(=O)c3cn(C)cn3)cccc2C(=O)N([C@H](C)CO)C[C@@H]1C
- viability index [1]: 1.04 ± 0.038

SMILES: COc1ccc(-c2cccc(-c3nc(C(=O)N(C)C)cc4c3[C@H](CCO)N([S@@](=O)C(C)(C)C)C4)c2)cc1
- viability index [1]: 1.05 ± 0.057

SMILES: O=C(CC(F)(F)F)N1C[C@H]2[C@@H](c3ccccc31)[C@@H](CO)N2CC1CCOCC1
- viability index [1]: 1.07 ± 0.066

SMILES: O=C(c1ccccn1)N1CC2(C1)[C@H](c1ccccc1)[C@@H](CO)N2C(=O)C1CCCCC1
- viability index [1]: 1.02 ± 0.076

SMILES: C/C=C/c1ccc2n(c1=O)C[C@@H]1[C@@H](CO)[C@H](C(=O)NCCCN(C)C)N(Cc3cocn3)[C@H]21.C/C=C\c1ccc2n(c1=O)C[C@@H]1[C@@H](CO)[C@H](C(=O)NCCCN(C)C)N(Cc3cocn3)[C@H]21
- viability index [1]: 1.05 ± 0.054

SMILES: Cn1cnc(S(=O)(=O)N2C[C@H](O)COC[C@@H]3O[C@H](CC(=O)NCc4cccc(F)c4)CC[C@H]32)c1
- viability index [1]: 0.99 ± 0.05

SMILES: COc1ccc2c3c([C@H](CO)N(C[C@]33CCN(CC3)C(=O)c3cnccn3)C(C)=O)n(C)c2c1
- viability index [1]: 1.038 ± 0.0037

SMILES: O=C(C1CCOCC1)N1CC(=O)N2[C@@H](CO)[C@H](c3ccc(/C=C/c4ccccc4)cc3)[C@@H]2C1
- viability index [1]: 0.994 ± 0.088

SMILES: COCC(=O)N1[C@H](CO)[C@@H]2c3ccccc3N(C)C[C@@H]21
- viability index [1]: 1.009 ± 0.0084

SMILES: Cc1noc(C)c1NC(=O)Nc1ccc2c(c1)C(=O)N([C@H](C)CO)C[C@H](C)[C@H](CN(C)S(=O)(=O)c1cccs1)OCCCC[C@H](C)O2
- viability index [1]: 1.04 ± 0.041

SMILES: CO[C@H]1CN(C)C(=O)c2cc(NC(=O)Nc3cc(F)ccc3F)ccc2OC[C@@H](C)NC[C@H]1C
- viability index [1]: 1.09 ± 0.1

SMILES: COCC#Cc1ccc([C@@H]2[C@H]3CN(C(=O)C4CCCCC4)CC(=O)N3[C@H]2CO)cc1
- viability index [1]: 1.03 ± 0.048

SMILES: COC(=O)C[C@H]1CC[C@@H]2[C@H](COC[C@@H](O)CN2S(=O)(=O)c2cn(C)cn2)O1
- viability index [1]: 1.043 ± 0.0028

SMILES: CC(C)CNC[C@@H]1[C@@H](c2ccccc2)[C@@H](CO)N1Cc1ccc(F)cc1
- viability index [1]: 1.01 ± 0.036

SMILES: C/C=C/c1ccc2n(c1=O)C[C@@H]1[C@@H](CO)[C@H](C(=O)NCc3cccc(OC)c3)N[C@H]21.C/C=C\c1ccc2n(c1=O)C[C@@H]1[C@@H](CO)[C@H](C(=O)NCc3cccc(OC)c3)N[C@H]21
- viability index [1]: 0.999 ± 0.063

SMILES: CCc1nc(N2[C@H](C#N)[C@@H](c3ccccc3-c3ccc(F)cc3)[C@@H]2CO)sc1C
- viability index [1]: 1.07 ± 0.071

SMILES: COc1ccc2c3c([C@H](CO)NC[C@]33CCN(Cc4ccc(cc4)-c4ccccn4)CC3)n(C)c2c1
- viability index [2]: 0.835 ± 0.04

SMILES: O=C(C[C@@H]1CC[C@H]2[C@@H](COC[C@H](O)CN2S(=O)(=O)c2cccc(F)c2)O1)NCc1ccncn1
- viability index [1]: 1.07 ± 0.069

SMILES: C[C@@H]1CN([C@H](C)CO)C(=O)c2cc(C3=CCCC3)cnc2O[C@@H]1CN(C)C(=O)Nc1ccc(C(F)(F)F)cc1
- viability index [1]: 1.01 ± 0.13

SMILES: COc1ccc2c3c([C@H](CO)N(Cc4ccccc4)C[C@]33CN(CC4CC4)C3)n(C)c2c1
- viability index [1]: 0.923 ± 0.022

SMILES: CCCN1C[C@H](C)[C@@H](OC)CN(C)C(=O)c2cc(NS(=O)(=O)c3ccccc3)ccc2OC[C@H]1C
- viability index [1]: 0.932 ± 0.092

SMILES: COc1ccccc1CN1CC2(C1)[C@H](c1ccccc1)[C@@H](CO)N2Cc1ccccc1
- viability index [2]: 0.878 ± 0.046

SMILES: C[C@@H]1CN([C@@H](C)CO)C(=O)c2cc(NC(=O)C3CCCCC3)ccc2O[C@H]1CN(C)Cc1ccc2c(c1)OCO2
- viability index [1]: 1.05 ± 0.016

SMILES: C[C@@H]1CCCCO[C@@H](CN(C)C(=O)c2ccncc2)[C@H](C)CN([C@@H](C)CO)C(=O)c2cc(NS(=O)(=O)c3cccs3)ccc2O1
- viability index [1]: 1.17 ± 0.17

SMILES: CCC(=O)N1[C@H](CO)[C@H](c2ccc(C#CC3(O)CCCC3)cc2)[C@@H]1CNC(C)=O
- viability index [1]: 1.01 ± 0.022

SMILES: O=C(N[C@@H]1C=C[C@@H](CC(=O)N2CCN(c3ccccc3)CC2)O[C@H]1CO)c1ccccc1
- viability index [1]: 1.06 ± 0.14

SMILES: OC[C@H]1[C@@H](c2ccc(-c3cccnc3)cc2)[C@H]2CN(Cc3ccccn3)CCCCN21
- viability index [1]: 1.02 ± 0.035

SMILES: Cc1ccccc1S(=O)(=O)N1C[C@@H]2N[C@H](C1)[C@H]2c1ccc(-c2cccc(C#N)c2)cc1
- viability index [1]: 1.03 ± 0.033

SMILES: C[C@@H]1CN([C@@H](C)CO)C(=O)c2cc(N(C)C)ccc2O[C@@H]1CN(C)Cc1ccc(Oc2ccccc2)cc1
- viability index [1]: 0.926 ± 0.044

SMILES: O=C(Nc1ccccc1F)N1[C@@H]2CNC[C@H]1[C@H]2c1ccc(-c2ccncc2)cc1
- viability index [1]: 1.079 ± 0.0082

SMILES: C[C@H]1CCCCO[C@H](CN(C)C(=O)Nc2ccc(C(F)(F)F)cc2)[C@@H](C)CN([C@@H](C)CO)C(=O)c2cc(NS(=O)(=O)c3cn(C)cn3)ccc2O1
- viability index [1]: 1.01 ± 0.013

SMILES: CCC(=O)N1CC2(C1)[C@@H](c1ccc(-c3ccc(F)cc3)cc1)[C@@H](CO)N2C(C)=O
- viability index [1]: 1.09 ± 0.021

SMILES: C[C@H](CO)N1C[C@H](C)[C@H](CN(C)Cc2ccc(F)cc2)Oc2cc(C#CC(C)(C)O)ccc2S1(=O)=O
- viability index [1]: 0.977 ± 0.069

SMILES: O=C(NC[C@H]1[C@H](c2ccccc2)[C@H](CO)N1Cc1cccnc1)c1ccccn1
- viability index [1]: 0.984 ± 0.023

SMILES: O=C(C[C@@H]1C=C[C@@H](NC(=O)c2ccc3c(c2)OCO3)[C@H](CO)O1)NC1Cc2ccccc2C1
- viability index [1]: 1 ± 0.026

SMILES: N#Cc1cccc(-c2ccc([C@H]3[C@@H](CO)N[C@@H]3CNC(=O)C3CCC3)cc2)c1
- viability index [1]: 1.09 ± 0.084

SMILES: CO[C@H]1CN(C)C(=O)c2ccc(NS(=O)(=O)CC(F)(F)F)cc2OC[C@@H](C)N(C(=O)NC(C)C)C[C@H]1C
- viability index [1]: 0.997 ± 0.11

SMILES: COc1ccccc1C#Cc1ccc([C@H]2[C@H](CO)N3CCCCN(C(=O)C4CCC4)C[C@@H]23)cc1
- viability index [1]: 0.967 ± 0.014

SMILES: CCS(=O)(=O)Nc1ccc2c(c1)C(=O)N(C)[C@H]1CC[C@H](CC(=O)NCCCN3CCOCC3)O[C@H]1CO2
- viability index [1]: 1.047 ± 0.009

SMILES: CO[C@H]1CC[C@H]2CCOc3c(C#N)cccc3C(=O)N(C)C[C@H](OC)[C@@H](C)C(=O)N(C)C[C@H]1O2
- viability index [1]: 1.064 ± 0.0017

SMILES: O=C(NC1CCCC1)N1CCCCN2[C@@H](CO)[C@@H](c3ccc(-c4cccnc4)cc3)[C@@H]2C1
- viability index [1]: 0.934 ± 0.044

SMILES: C[C@H]1CN([C@@H](C)CO)C(=O)Cc2cc(NC(=O)Nc3ccc(F)cc3)ccc2O[C@@H]1CN(C)S(C)(=O)=O
- viability index [1]: 0.968 ± 0.12

SMILES: Cc1ccc(S(=O)(=O)N(C)C[C@@H]2Oc3c(NS(C)(=O)=O)cccc3C(=O)N([C@@H](C)CO)C[C@H]2C)cc1
- viability index [1]: 1.07 ± 0.068

SMILES: O=C(C[C@H]1C=C[C@@H](NC(=O)Cc2cccnc2)[C@@H](CO)O1)NCc1ccc2c(c1)OCO2
- viability index [1]: 1.12 ± 0.016

SMILES: Cc1ccc(-c2ccc([C@H]3[C@H]4CNC[C@@H]3N4C(=O)NC(C)C)cc2)cc1
- viability index [1]: 1.12 ± 0.069

SMILES: CCNC(=O)[C@@H]1[C@@H](CO)[C@@H]2Cn3c(cccc3=O)[C@@H]2N1C(=O)CC1CC1
- viability index [1]: 1.016 ± 0.0063

SMILES: O=C(NCc1cccc(F)c1)[C@@H]1[C@@H](CO)[C@@H]2Cn3c(ccc(-c4ccncc4)c3=O)[C@H]1N2CC1CC1
- viability index [1]: 1.07 ± 0.025

SMILES: CO[C@@H](CN(C)Cc1ccc(-c2ccccn2)cc1)[C@H](C)CN(C(=O)Nc1ccc(F)cc1)[C@@H](C)CO
- viability index [1]: 1.08 ± 0.049

SMILES: OC[C@@H]1[C@H]2c3ccccc3NC[C@H]2N1Cc1ccccc1Cl
- viability index [1]: 1.02 ± 0.021

SMILES: C[C@@H]1CN([C@H](C)CO)C(=O)CCCn2nncc2CO[C@@H]1CN(C)S(=O)(=O)c1ccc2c(c1)OCCCO2
- viability index [1]: 1.025 ± 0.0016

SMILES: N#C[C@H]1N[C@@H](CO)[C@@H]1c1ccc(C#Cc2ccccc2F)cc1
- viability index [1]: 1.142 ± 0.01

SMILES: COc1cccc(S(=O)(=O)Nc2ccc3c(c2)C(=O)N(C)C[C@@H](OC)[C@@H](C)CN(Cc2ccccc2F)[C@@H](C)CO3)c1
- viability index [1]: 1.034 ± 0.0034

SMILES: COc1cccc(-c2ccc([C@H]3[C@@H]4CN(C(=O)C5CCCCC5)C[C@H]3N4)cc2)c1
- viability index [1]: 1.08 ± 0.039

SMILES: C/C=C/c1ccc([C@H]2[C@@H](CN(C)C(=O)CC3CC3)N(C(=O)C3CC3)[C@H]2CO)cc1
- viability index [1]: 0.977 ± 0.058
